Measured values published in PMC9911399, “Two distinct binding modes provide the RNA-binding protein RbFox with extraordinary sequence specificity”.
Residue numbers refer to the chain shown, from its start. The list shows a part of the results.

T1: RBFOX1 RRM (Homo sapiens, UniProt Q9NWB1 109-208)
T1 sequence: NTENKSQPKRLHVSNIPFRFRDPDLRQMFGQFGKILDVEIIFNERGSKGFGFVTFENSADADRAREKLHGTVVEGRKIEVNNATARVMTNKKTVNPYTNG

B1: AGAUCUC (DNA:RNA)
RNA: GGGAGACCGGAAUUCAGAUUGUCCAGAUCUCUUAAAUCCCGUCGUAGCCACCA
DNA 1: CAATCTGAATTCCGGTCTCCC
DNA 2: TGGTGGCTACGACGGGATT
B2: CGUAUGC (DNA:RNA)
RNA: B1 RNA with A25C, A27U, U28A, C29U, U30G
DNA 1: CAATCTGAATTCCGGTCTCCC
DNA 2: TGGTGGCTACGACGGGATT
B3: CGGUUGC (DNA:RNA)
RNA: B1 RNA with A25C, A27G, C29U, U30G
DNA 1: CAATCTGAATTCCGGTCTCCC
DNA 2: TGGTGGCTACGACGGGATT
B4: AAGAAUU (DNA:RNA)
RNA: B1 RNA with G26A, A27G, U28A, C29A, C31U
DNA 1: CAATCTGAATTCCGGTCTCCC
DNA 2: TGGTGGCTACGACGGGATT
B5: UCUUGGA (DNA:RNA)
RNA: B1 RNA with A25U, G26C, A27U, C29G, U30G, C31A
DNA 1: CAATCTGAATTCCGGTCTCCC
DNA 2: TGGTGGCTACGACGGGATT
B6: UGACAAC (DNA:RNA)
RNA: B1 RNA with A25U, U28C, C29A, U30A
DNA 1: CAATCTGAATTCCGGTCTCCC
DNA 2: TGGTGGCTACGACGGGATT
B7: GACUGAA (DNA:RNA)
RNA: B1 RNA with A25G, G26A, A27C, C29G, U30A, C31A
DNA 1: CAATCTGAATTCCGGTCTCCC
DNA 2: TGGTGGCTACGACGGGATT
B8: AAGUUUG (DNA:RNA)
RNA: B1 RNA with G26A, A27G, C29U, C31G
DNA 1: CAATCTGAATTCCGGTCTCCC
DNA 2: TGGTGGCTACGACGGGATT
B9: AAGUCCA (DNA:RNA)
RNA: B1 RNA with G26A, A27G, U30C, C31A
DNA 1: CAATCTGAATTCCGGTCTCCC
DNA 2: TGGTGGCTACGACGGGATT
B10: AAUUCUU (DNA:RNA)
RNA: B1 RNA with G26A, A27U, C31U
DNA 1: CAATCTGAATTCCGGTCTCCC
DNA 2: TGGTGGCTACGACGGGATT
B11: AUAGAGC (DNA:RNA)
RNA: B1 RNA with G26U, U28G, C29A, U30G
DNA 1: CAATCTGAATTCCGGTCTCCC
DNA 2: TGGTGGCTACGACGGGATT
B12: GUACACG (DNA:RNA)
RNA: B1 RNA with A25G, G26U, U28C, C29A, U30C, C31G
DNA 1: CAATCTGAATTCCGGTCTCCC
DNA 2: TGGTGGCTACGACGGGATT
B13: UUGAUGA (DNA:RNA)
RNA: GGGAGACCGGAAUUCAGAUUGUCCUUGAUGAUUAAAUCCCGUCGUAGCCACCA
DNA 1: CAATCTGAATTCCGGTCTCCC
DNA 2: TGGTGGCTACGACGGGATT
B14: AACACCU (DNA:RNA)
RNA: B1 RNA with G26A, A27C, U28A, U30C, C31U
DNA 1: CAATCTGAATTCCGGTCTCCC
DNA 2: TGGTGGCTACGACGGGATT
B15: AGUAUAA (DNA:RNA)
RNA: B13 RNA with U25A, U26G, G27U, G30A
DNA 1: CAATCTGAATTCCGGTCTCCC
DNA 2: TGGTGGCTACGACGGGATT
B16: UUGUCUU (DNA:RNA)
RNA: B1 RNA with A25U, G26U, A27G, C31U
DNA 1: CAATCTGAATTCCGGTCTCCC
DNA 2: TGGTGGCTACGACGGGATT
B17: CACGAGG (DNA:RNA)
RNA: B13 RNA with U25C, U26A, G27C, A28G, U29A, A31G
DNA 1: CAATCTGAATTCCGGTCTCCC
DNA 2: TGGTGGCTACGACGGGATT
B18: AUACUUA (DNA:RNA)
RNA: B1 RNA with G26U, U28C, C29U, C31A
DNA 1: CAATCTGAATTCCGGTCTCCC
DNA 2: TGGTGGCTACGACGGGATT
B19: CGUCCAU (DNA:RNA)
RNA: B1 RNA with A25C, A27U, U28C, U30A, C31U
DNA 1: CAATCTGAATTCCGGTCTCCC
DNA 2: TGGTGGCTACGACGGGATT
B20: AUGAGAG (DNA:RNA)
RNA: B13 RNA with U25A, U29G, G30A, A31G
DNA 1: CAATCTGAATTCCGGTCTCCC
DNA 2: TGGTGGCTACGACGGGATT
B21: AAUGAUU (DNA:RNA)
RNA: B1 RNA with G26A, A27U, U28G, C29A, C31U
DNA 1: CAATCTGAATTCCGGTCTCCC
DNA 2: TGGTGGCTACGACGGGATT
B22: UUAUCUA (DNA:RNA)
RNA: B1 RNA with A25U, G26U, C31A
DNA 1: CAATCTGAATTCCGGTCTCCC
DNA 2: TGGTGGCTACGACGGGATT
B23: UUGUAGC (DNA:RNA)
RNA: B13 RNA with A28U, U29A, A31C
DNA 1: CAATCTGAATTCCGGTCTCCC
DNA 2: TGGTGGCTACGACGGGATT
B24: CAUCGCC (DNA:RNA)
RNA: B1 RNA with A25C, G26A, A27U, U28C, C29G, U30C
DNA 1: CAATCTGAATTCCGGTCTCCC
DNA 2: TGGTGGCTACGACGGGATT
B25: AUGCCAG (DNA:RNA)
RNA: B1 RNA with G26U, A27G, U28C, U30A, C31G
DNA 1: CAATCTGAATTCCGGTCTCCC
DNA 2: TGGTGGCTACGACGGGATT
B26: GAGGUGC (DNA:RNA)
RNA: B13 RNA with U25G, U26A, A28G, A31C
DNA 1: CAATCTGAATTCCGGTCTCCC
DNA 2: TGGTGGCTACGACGGGATT
B27: GGAGUUA (DNA:RNA)
RNA: B1 RNA with A25G, U28G, C29U, C31A
DNA 1: CAATCTGAATTCCGGTCTCCC
DNA 2: TGGTGGCTACGACGGGATT
B28: AUCACAC (DNA:RNA)
RNA: B1 RNA with G26U, A27C, U28A, U30A
DNA 1: CAATCTGAATTCCGGTCTCCC
DNA 2: TGGTGGCTACGACGGGATT
B29: UGUGACC (DNA:RNA)
RNA: B1 RNA with A25U, A27U, U28G, C29A, U30C
DNA 1: CAATCTGAATTCCGGTCTCCC
DNA 2: TGGTGGCTACGACGGGATT
B30: CUUCACU (DNA:RNA)
RNA: B13 RNA with U25C, G27U, A28C, U29A, G30C, A31U
DNA 1: CAATCTGAATTCCGGTCTCCC
DNA 2: TGGTGGCTACGACGGGATT
B31: CCGAAAG (DNA:RNA)
RNA: B13 RNA with U25C, U26C, U29A, G30A, A31G
DNA 1: CAATCTGAATTCCGGTCTCCC
DNA 2: TGGTGGCTACGACGGGATT

What follows are binders tested against T1, RBFOX1 RRM (assay: EMSA; HiTS-Eq, 1 nM pool, 10 min; buffer printed only for the single-RNA assays: 10 mM Tris pH 7.5, 150 mM NaCl, 3.4 mM EDTA, 0.001% NP-40, 30 C). Settings: tags: His6 N-terminal (pET28a); label: 5' 32P.
Procedure, shortened: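 Relative association constants, normalised to the cognate motif, were derived by comparing read counts of each RNA species with those of the control reaction. The RNA sequenced was the free fraction, separated by 8% native PAGE after a 10 min equilibration in 50 µL of 1 nM 5′-radiolabelled RNA (7 randomized nucleotides) with increasing concentrations of purified wild-type or mutant RbFox RRM.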

| Binder | binding signal |
| --- | --- |
| B1 | 0.00709 KA relative to UGCAUGU |
| B2 | 0.014 KA relative to UGCAUGU |
| B3 | 0.0256 KA relative to UGCAUGU |
| B4 | 0.00388 KA relative to UGCAUGU |
| B5 | 0.00408 KA relative to UGCAUGU |
| B6 | 0.00863 KA relative to UGCAUGU |
| B7 | 0.0274 KA relative to UGCAUGU |
| B8 | 0.0158 KA relative to UGCAUGU |
| B9 | 0.00199 KA relative to UGCAUGU |
| B10 | 0.00253 KA relative to UGCAUGU |
| B11 | 0.00439 KA relative to UGCAUGU |
| B12 | 0.00796 KA relative to UGCAUGU |
| B13 | 0.0228 KA relative to UGCAUGU |
| B14 | 0.00106 KA relative to UGCAUGU |
| B15 | 0.00197 KA relative to UGCAUGU |
| B16 | 0.0176 KA relative to UGCAUGU |

| Binder | binding signal |
| --- | --- |
| B17 | 0.00799 KA relative to UGCAUGU |
| B18 | 0.00244 KA relative to UGCAUGU |
| B19 | 0.00234 KA relative to UGCAUGU |
| B20 | 0.0123 KA relative to UGCAUGU |
| B21 | 0.00668 KA relative to UGCAUGU |
| B22 | 0.00293 KA relative to UGCAUGU |
| B23 | 0.0171 KA relative to UGCAUGU |
| B24 | 0.0124 KA relative to UGCAUGU |
| B25 | 0.00872 KA relative to UGCAUGU |
| B26 | 0.023 KA relative to UGCAUGU |
| B27 | 0.0106 KA relative to UGCAUGU |
| B28 | 0.00092 KA relative to UGCAUGU |
| B29 | 0.0155 KA relative to UGCAUGU |
| B30 | 0.00478 KA relative to UGCAUGU |
| B31 | 0.00968 KA relative to UGCAUGU |
